Measured values reported in PubChem BioAssay AID1347073 (National Center for Advancing Translational Sciences (NCATS), 2019).
Hit rate of the full screen: of about 45,000 compounds, about 200 (0.44%) were called active. Not shown: some 7% with an inconclusive outcome. Calls follow the shape of the dose curve; as a rule, active = well fitted activation curve with a large enough effect; inconclusive = small, poorly fitted or top-dose-only effect; inactive = no such curve, though single readings can be large or run the other way. Some of the results follow.

test: qHTS of TDP-43 Inhibitors: NCGC Sytravon Library Screen; settings: yeast TDP-43 toxicity rescue, BacTiter-Glo growth, 24 h; series mostly up to 46.1 µM; growth rescue (activation): at the top concentration; also: 0% is about no effect; nearly all actives have a fitted effect of over 55% in size
Method in brief: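 TDP-43-expressing yeast, pregrown in raffinose, seeded at OD600 0.02 in galactose medium with compound for 24 hr at 30 deg C. Growth read by BacTiter-Glo luminescence, so rescue of toxicity appears as activation.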

| Structure (SMILES) | growth rescue (activation) |
| --- | --- |
| COc1ccc(-n2nc(C(=O)NCC(=O)Nc3cc(OC)c(OC)c(OC)c3)c3ccccc3c2=O)cc1Cl | inactive: 0.212% |
| Fc1ccc(CN2C3=NCCCN3c3ccccc32)cc1 | inactive: 22.6% |
| O=C(OCC(=O)N1CCCC1)c1cc(Cl)ccc1[N+](=O)[O-] | inactive: -1.14% |
| COc1ccc(NC(=O)C/C(C)=N/NC(=O)c2ccco2)c([N+](=O)[O-])c1 | inactive: 3.48% |
| Cc1ccc(-c2nc3ncccc3o2)cc1NC(=S)NC(=O)c1ccco1 | inactive: 4.1% |
| CCNC(=O)n1cc(-n2cncn2)c(-c2ccccc2)n1 | inactive: 0.992% |
| O=C1CN(C(=O)COc2ccc(Cl)c(Cl)c2)c2ccccc2N1 | inactive: 16.3% |
| CCOC(=O)C1CCCN(C(=O)c2ccc(Cl)c(S(=O)(=O)N3CCCCCC3)c2)C1 (stereo not drawn) | inactive: 12.5% |
| Clc1ccc2c(NCc3ccccc3)ccnc2c1 | inactive: 5.72% |
| CCOC(=O)c1c(NC(=O)Cn2cnc([N+](=O)[O-])n2)sc(C)c1C | inactive: 4.65% |
| COc1ccc(-c2csc(=NCCO)n2-c2ccccc2)cc1 | inactive: 16.2% |
| Cc1c(Br)cccc1NC(=O)C1(C)CCN1Cc1ccc(OC(C)C)cc1 (stereo not drawn) | inactive: 18.8% |
| COc1ccc(N2C(=O)C3CCCCC3C2=O)cc1NC(=O)c1ccccc1 (stereo not drawn) | inactive: 0.124% |
| O=C(NC1CCCC1)c1cccc(Oc2ccccc2)c1 | inactive: 19.7% |
| CCNC(=S)Nc1ccc2c(c1)c(=O)n(C)n2-c1ccc(C(C)(C)C)cc1 | inactive: 14.7% |
| C=CCn1c(SCC(N)=O)nnc1-c1cnccn1 | inactive: -7.51% |
| CN(C#N)c1nc(N2CCOCC2)nc(N2CCOCC2)n1 | inactive: 31.6% |
| Nc1nc(Cl)cc(Oc2ccccc2F)n1 | inactive: 34.1% |
| CCOc1ncccc1C(=O)Nc1c(C)n(C)n(-c2ccccc2)c1=O | inactive: 16.1% |
| Cc1ccc(OCC(=O)Nc2nnc(S(=O)(=O)N3CCC(C)CC3)s2)cc1 | inactive: -7.73% |
| COc1ccc(C(=O)O/N=C(/c2ccccc2)c2ccncc2)cc1 | inactive: 6.51% |
| COC(=O)C1=NNC(C(=O)c2ccco2)C1c1ccccc1 (stereo not drawn) | inactive: 5.14% |
| CCN1CCN(CCC(=O)Nc2ccc(Br)cc2)CC1 | inactive: -5.76% |
| CCCC(c1nnnn1CS(=O)(=O)c1ccc(C)cc1)N1CCN(C2CCCC2)CC1 (stereo not drawn) | inactive: -3.69% |
| CCCOc1ccc(/C=N/NC(=O)CSc2ccccn2)cc1OC | inactive: 16.6% |
| Cc1ccc(C(=O)NN(CCC#N)C2=NS(=O)(=O)c3ccccc32)cc1 | inactive: -6.88% |
| O=C(NCC1CCCO1)c1nn2c(C(F)(F)F)cc(-c3cc(Br)cs3)nc2c1Br (stereo not drawn) | inactive: 4.67% |

| Structure (SMILES) | growth rescue (activation) |
| --- | --- |
| COc1ccc(NC(=S)N2CCC(N(C)CCN3CCOCC3)CC2)cc1Cl | inactive: 9.8% |
| COc1ccc2nc(Cl)cc(Cl)c2c1 | inactive: -7.84% |
| O=C(NCCC1=CCCCC1)C1CCN(S(=O)(=O)c2ccccc2)CC1 | inactive: -6.71% |
| COc1ccc(NC(=O)c2cc(C3CCCCN3S(=O)(=O)c3ccccc3)on2)c(C)c1 (stereo not drawn) | inactive: 19.1% |
| CCCn1nnnc1NC(=O)COc1ccc(Cl)c(C)c1 | inactive: 29.8% |
| CC(=O)NC1=NN(C(C)=O)C(c2ccc(F)cc2)S1 (stereo not drawn) | inactive: -4.48% |
| CC(C)(C)c1ccc(/C=N/Nc2ccc(C(=O)O)cc2)cc1 | inactive: -82.3% |
| CCCOc1ccc2cc(-c3ccccn3)c(=O)oc2c1 | inactive: -15.1% |
| COc1ccccc1CCC(=O)OCC(=O)Nc1c(Br)cc(C)cc1Br | inactive: 3.73% |
| COc1cc2ccccc2cc1C(=O)Nc1ccc(NC(=O)c2cccs2)cc1 | inactive: 5.77% |
| CN1C(=O)Cc2cc(S(=O)(=O)Nc3ccc(N4CCOCC4)cc3)ccc21 | inactive: 9.85% |
| COCCNC(=O)C1(C)CCCN(C(=O)c2cc(OC)c(OC)c(OC)c2)C1 (stereo not drawn) | inactive: 4.9% |
| Cc1ccc(C(=O)N/C(=C\c2ccco2)C(=O)N2CCCCC2)cc1 | inactive: 22% |
| COc1ccccc1NC(=O)C1CCCN(C(=O)NCc2ccccc2)C1 (stereo not drawn) | inactive: 7.95% |
| Cn1c(=O)c2c(ncn2CC(=O)Nc2ccc3c(c2)OCO3)n(C)c1=O | inactive: 15.6% |
| CCC(C)/C(C)=N/NC(=O)c1cn(-c2ccccc2)nc1-c1ccccc1 (stereo not drawn) | inactive: -2.96% |
| O=C(NC1CCS(=O)(=O)C1)/C(=C/c1ccco1)NC(=O)c1ccccc1 (stereo not drawn) | inactive: -16.3% |
| CCOC(=O)c1c(CC(C)C)csc1NC(=O)COC(=O)c1ccc(O)cc1 | inactive: 22.2% |
| CC(Sc1nnc(-c2ccccc2)c(-c2ccccc2)n1)C(=O)NCC1CCCO1 (stereo not drawn) | inactive: -17.4% |
| O=S(=O)(NCc1cn2ccccc2n1)c1cc(F)ccc1F | inactive: 1.04% |
| O=C(CSc1ccccc1)N1CCN(S(=O)(=O)c2ccccc2F)CC1 | inactive: 2.63% |
| COC(=O)c1c(C)[nH]c(C(=O)CC#N)c1C | inactive: -0.973% |
| NC(=NC(=O)c1ccccc1)N1CCN(C(c2ccccc2)c2ccccc2)CC1 | inactive: -9.97% |
| Cc1ccc2[nH]c(=O)c3cc(C(=O)NC(C)C)sc3c2c1 | inactive: 1.67% |
| CCCN1Cc2cccc(C(=O)NC(CC(=O)OCC)c3ccc(OC(C)C)cc3)c2C1=O (stereo not drawn) | inactive: -3.64% |
| Clc1ccc(Cl)c(OCCCCNCc2ccccc2)c1 | inactive: -29% |
